# Reference: the supplement of paper PMC12355420
# Several values for one entry are separate records, joined by “and”; a condition that tells them apart may be missing. Identical values can stand only once. Counter-ions that a name gives are not always drawn. The list shows a part of the results. Repeats are few or missing, and single values can be far off.
# Test system: HeLa VPS33A reporter cells
# Assay: relative cell viability (CellMask signal) vs DMSO (fraction of DMSO); HeLa model of a glycosaminoglycan (GAG) storage disease; KI is knock-in and KO knock-out; SDC1 is syndecan 1; higher = less cytotoxic
# Conditions: 50 µM; 24 h
# 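Note: primary screen of an FDA-approved drug library in HeLa reporter cells in 96-well format, CellMask signal normalized to DMSO-treated wells set as 1, under 0.5 deemed highly cytotoxic.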
row,SMILES,relative cell viability
1,CCCCc1oc2ccc(NS(C)(=O)=O)cc2c1C(=O)c1ccc(OCCCN(CCCC)CCCC)cc1 [Dronedarone],0.00463
2,CC[C@@H]1C(=O)N(C)c2cnc(Nc3ccc(C(=O)N[C@H]4CC[C@H](N5CCN(CC6CC6)CC5)CC4)cc3OC)nc2N1C(C)C [BI6727 (Volasertib)],0.00571
3,CC(C)C[C@H](NC(=O)CNC(=O)c1cc(Cl)ccc1Cl)B1OC(=O)CC(CC(=O)O)(C(=O)O)O1 (stereo partly drawn),0.0204
4,Clc1ccc2c(c1)C(N1CCNCC1)=Nc1ccccc1O2 [Amoxapine],0.0084
5,C=C[C@](C)(O)CC[C@@H]1[C@@]2(C)CCCC(C)(C)[C@@H]2CC[C@@]1(C)O [Sclareol],0.00569
6,CCCNCC(O)COc1ccccc1C(=O)CCc1ccccc1 (stereo not drawn) [Propafenone HCl],0.0438
7,N#Cc1ccc2[nH]cc(CCCCN3CCN(c4ccc5oc(C(N)=O)cc5c4)CC3)c2c1 [Vilazodone],0.191
8,C=CCc1ccc(O)c(-c2ccc(O)c(CC=C)c2)c1 [Honokiol],0.0101
9,COC1=C(OC)C(=O)C(CCCCCCCCCCO)=C(C)C1=O [Idebenone],0.00522
10,C=CC(=O)N1CCC[C@@H](n2nc(-c3ccc(Oc4ccccc4)cc3)c3c(N)ncnc32)C1,0.00463
11,N#Cc1ccc2[nH]cc(CCCCN3CCN(c4ccc5oc(C(N)=O)cc5c4)CC3)c2c1 [Vilazodone Hydrochloride],0.427
12,CC(C)(C)c1cc(C(C)(C)C)c(NC(=O)c2c[nH]c3ccccc3c2=O)cc1O [Ivacaftor (VX-770)],0.00469
13,Cc1ccc(NC(=O)c2ccc(CN3CCN(C)CC3)cc2)cc1Nc1nccc(-c2cccnc2)n1 [Imatinib (STI571)],0.0338
14,CCCCCCCCOc1ccccc1C(=O)Nc1ccc(C(=O)OCC[N+](C)(CC)CC)cc1 [Otilonium Bromide],0.00411
15,O=S(=O)(c1cccc2cnccc12)N1CCCNCC1 [Fasudil (HA-1077) HCl],0.0566
16,COCCCC/C(=N\OCCN)c1ccc(C(F)(F)F)cc1 [Fluvoxamine maleate],0.00277
17,CCCCCCCCCCCCCCCCOP(=O)([O-])OCC[N+](C)(C)C [Miltefosine],0.0102
18,CCN(CC)CC#CCOC(=O)C(O)(c1ccccc1)C1CCCCC1 (stereo not drawn) [Oxybutynin],0.0607
19,COc1cc(OC)c(/C=C/S(=O)(=O)Cc2ccc(OC)c(NCC(=O)O)c2)c(OC)c1,0.289
20,C[C@@H](O[C@H]1OCCN(Cc2n[nH]c(=O)[nH]2)[C@H]1c1ccc(F)cc1)c1cc(C(F)(F)F)cc(C(F)(F)F)c1 [Aprepitant],0.0337
21,CC(=O)c1c(C)c2cnc(Nc3ccc(N4CCNCC4)cn3)nc2n(C2CCCC2)c1=O,0.0044 and 0.00355
22,CC1CC(OC(=O)C(O)c2ccccc2)CC(C)(C)C1 (stereo not drawn) [Cyclandelate],0.0181
23,CCNC1(C(N)=O)CCN(c2ncnc3c2nc(-c2ccccc2Cl)n3-c2ccc(Cl)cc2)CC1,0.00425
24,COc1cccc2c1C(=O)c1c(O)c3c(c(O)c1C2=O)C[C@@](O)(C(=O)CO)C[C@@H]3O[C@H]1C[C@H](N)[C@H](O)[C@H](C)O1 [Doxorubicin],0.00311
25,O=C(CCCN1CCC(O)(c2ccc(Cl)cc2)CC1)c1ccc(F)cc1 [Haloperidol hydrochloride],0.0123
26,CCOC(=O)C1=C(COCCN)NC(C)=C(C(=O)OC)C1c1ccccc1Cl (stereo not drawn) [Amlodipine Besylate],0.00413
27,CCOc1cc2ncc(C#N)c(Nc3ccc(OCc4ccccn4)c(Cl)c3)c2cc1NC(=O)/C=C/CN(C)C [Neratinib (HKI-272)],0.0104
28,Clc1ccc(C(Cn2ccnc2)OCc2ccc(Sc3ccccc3)cc2)c(Cl)c1 (stereo not drawn) [Fenticonazole Nitrate],0.00563
